Measurements taken from the supplement of paper PMC10126150.
Sequences with one replicate were seen in a single cluster, so their values are uncertain.

Test system: ATP
Experiment: switch fluorescence ratio, 500 uM ATP over buffer (Cy3 cluster intensity, sum of 5 cycles each) (fold (ratio)); higher = stronger signal-on switching upon ATP binding; sequences stand for … in TCGTCGGCAGCGTCAGATGTGTATAAGAGACAGTTTTTTTTTTTTTTTTTTTTTTTTT…TC
Conditions: aptamer strand: ATP DNA aptamer (quencher-CACCTGGGGGAGTATTGCGGAGGAAGG + anchor), 100 nM annealed; ATP concentration: 500 uM; one replicate
Outline: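 Clusters carrying Cy3-labelled switching strands on a modified Illumina MiSeq flow-cell were annealed to 100 nM quencher-labelled ATP aptamer and imaged in selection buffer. They were imaged again after 15 min with 500 uM ATP at 22 °C, over five buffer/ATP cycles with NaOH stripping and re-annealing in between. For each cluster, the fluorescence ratio is the summed Cy3 intensity of the target cycles divided by that of the buffer cycles, averaged per switch-domain sequence. Clusters outside 100-1000 RFU were left out.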
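Also: ATP exposure 15 min at 22 °C before imaging.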

Sequence | switch fluorescence ratio
AACTTCTCAT | 1.02
GCTGTAGCTG | 1.01
GAGGGTACCG | 1.03
TTTAGATGTC | 1.04
GCCCTTTAAG | 0.978
GCGACGTTAG | 0.963
GGAGTCTACT | 1.01
TAGTATGGCA | 1.03
AGGGTACCGT | 1.01
TGTTGCCCGT | 0.991
TATAGCCAAC | 1.05
CATAAAACAT | 0.998
CATTAAGTTA | 1.02
ACCGGGCGCT | 1.02
TCACACAATC | 1.19
CAATTAGGGG | 0.972
TTCGTCCTCA | 1.09
ACAGCTAATT | 1.03
CACAGGGCGC | 1.05
GATTCTTGA | 1.02
TTAGCACCAT | 0.992
GCGTTCCGA | 1.22
TAAAGTCTGG | 0.963

Sequence | switch fluorescence ratio
TGGGGACACG | 0.965
TAATGCGTCC | 0.974
ACGTAAAGTG | 1.04
TAAATACATG | 0.967
AGCATACCCC | 2.77
GGGTGTCGTG | 1.03
CGGAATTCAT | 0.96
CTTGTACCCC | 1.12
AAAATCCGGA | 1.04
AGAAGTTAAG | 1.02
TTCATGAGAT | 1.03
TTCGGCCTTT | 0.975
ATCTATCATC | 1.02
CGCATTTTTC | 1.55
CAGTTCTACG | 0.955
GTATTAACAC | 1.02
AGTAACCGCT | 1.09
GCCTTGGGTT | 1
ACTTTGGTAG | 0.982
TTGTTAAGTT | 0.975
CCCTTAACAA | 1.11
TTTCTCGAAA | 1.09
GTCCTCATGG | 0.997

Sequence | switch fluorescence ratio
CAGGGACAAA | 1.01
TTTGGTCGCC | 0.951
CACGTCGCGT | 1.03
TGAAGTCCCA | 0.985
CACACGTTGC | 1.06
AGTGAATAAT | 1.09
CCATCGGACT | 0.978
TTCAGTTGTG | 0.981
GGTTGCTTCA | 1.03
GAACGGGGGC | 1.09
GATGTCGCAG | 0.967
ACTACCGCAT | 2.24
ACTTGACGCA | 1.07
CAGCACACGG | 1.13
GTCCTGCGAA | 1.07
TCAAAACGTG | 1
CGCCGACTGC | 1.1
TTTAAGGGGC | 1.03
CAGTCATTT | 1
CAAATGTTA | 0.999
TTGCATGGAC | 0.993
GAGTAGCGCA | 1.02
CTAGAAAACG | 1.06

Sequence | switch fluorescence ratio
CAGGCCCAAA | 0.962
CAAATATCCA | 1.02
ATGGACAGGA | 0.993
GACGAGACGG | 1.07
CGGGGGAATT | 1.04
AACGTGAGTC | 0.969
AACTTATCA | 0.977
GTAGGCAGAT | 0.982
ATTTTCTTAA | 0.983
CCGTATCTGC | 0.999
GTTGGCAATT | 0.931
GATCCCACTT | 1.01
CAATATATGG | 0.964
AAGGGTTACA | 0.991
ATCCTGACAG | 1.04
CGGACCTCAC | 1.45
TGTGTCCTGT | 0.984
TTCAGGGCTG | 0.872
CATTGCTGGA | 1.02
GCCTCGGCTA | 1.15
GATGAACTAC | 1.15
CCTAACTGGG | 0.984
ACGGATTATT | 0.988

Sequence | switch fluorescence ratio
AGGACTGGGC | 0.944
CCGGCAGGAA | 0.988
ATGCTAGATC | 1.21
CAAGTCGGCT | 1
GGTTTTTTCA | 1.01
ATACTGTGCT | 1.01
GTAACGACCT | 1.27
TATGCCGTAG | 0.995
ACCAAGTT | 0.957
AATATCACGT | 1.03
CGTACCCGTA | 0.999
CAATGACCTT | 1.22
AGTAGCGTTC | 1.04
GATTCAGAGC | 1.03
GTGCTAGGTG | 1.71
AGATTGGCAG | 0.97
CTAACCCCAC | 1.22
CAAGTTTCCC | 0.978
GGGCGTAGC | 0.99
ATGATGCCCC | 1.04
AAATCGAGTA | 0.975
TGGGTCCTAT | 1.01
GACCGAGTCC | 1.62

Sequence | switch fluorescence ratio
AGGCTACTTA | 1
AGTATATCAA | 1.01
CAAGGCTGCG | 0.973
CGGGGTGGCG | 2.49
CATCTGTGGA | 0.996
TTATGTCTCT | 1
TCATCCACAG | 1.64
GCACAGGGGG | 1.04
GCGTTTCTAA | 0.977
CGGGGGAGAT | 0.984
GCCTAAGAGA | 0.979
CCAATCTGCG | 1.02
AGAGACGGTA | 1.04
CATCTTTTGC | 1.03
TGGCGCCAGG | 0.981
ATTCGAGGGT | 0.936
GCTAAATTCA | 1
TATTAACTCG | 0.964
GTGAGTTAAA | 1.01
AATTACGGAG | 1.01
CGGTGCATCT | 1.03
ATTTACACGG | 1.05
ACGTAGGGCT | 0.984

Sequence | switch fluorescence ratio
CGGCCAGAGC | 0.981
AACTCAGGGA | 1.02
TTTACCTGCT | 0.973
CGGATGTTCC | 0.985
CAACCCTTTT | 0.967
TCCTAGCGGC | 1.22
CAAGGCACTA | 1.07
CCGAGATTGT | 1.05
CCTAGTTTAT | 0.964
CAAGGTACTA | 1.04
TACCCCACTC | 1.22
TGTTGCCAGC | 1.04
AGGTTCGGAA | 1.01
TCCATAAGCT | 0.956
TTCAGCCAT | 0.961
AGTATGCAGG | 0.973
ACATTGTTGG | 1.06
GTTGATCAGT | 1
GGGACTCTG | 0.998
